Experimental data: PubChem BioAssay AID624173 (National Center for Advancing Translational Sciences (NCATS), 2012)
The whole screen tested about 410,000 compounds, of which about 490 (0.12%) were called active. This list was built around the results that the source calls inconclusive (neither active nor inactive); the mix of calls is not that of the screen. The call rests on the fitted dose curve; in most records, active means well fitted inhibition curve with a large enough effect; inconclusive means small, poorly fitted or top-dose-only effect; inactive means flat fitted curve, though single readings scatter. Potencies of inconclusive entries are doubtful fits and often do not repeat.
Further: nearly all actives have a fitted effect of over 50% in size.
Potency means the concentration at half of the fitted maximal effect; tags describe the fitted curve by direction and shape.

These molecules were tested against pyruvate kinase (Trypanosoma brucei) (UniProt Q57TT1) (assay: qHTS of Trypanosoma Brucei Inhibitors). Conditions: TbPYK enzyme, Kinase-Glo Plus ATP luminescence, 45 min; series mostly up to 76.8 µM.
Summary of the method: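 Screened from lowest to highest concentration, compounds were pinned into TbPYK/substrate mixtures, and ADP (130 uM final) was added. Plates sat at room temperature for 45 min prior to Kinase-Glo Plus detection by luminescence.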
In the case of `Cn1c(SCC(=O)NC(C)(C)C)nnc1-c1ccc(C(C)(C)C)cc1`, the Potency was “inactive”.
In the case of `S=c1[nH]nc(-c2ccc(Br)cc2)n1-c1ccc2c(c1)OCCO2`, the Potency was inconclusive: 2 µM [inhibitor, full curve, poor fit].
For `Cc1ccc(-n2sc3ccccc3c2=O)cc1S(=O)(=O)N1CCCCC1`, the Potency was active: 3.98 µM.
For `Oc1ccccc1/C=N/n1c(-c2cccs2)n[nH]c1=S`, the Potency was inconclusive: 11.2 µM [inhibitor, partial curve, poor fit].
With `CC(C)(C)c1ccc(-c2n[nH]c(=S)n2/N=C/c2ccncc2)cc1` the Potency was inconclusive: 8.91 µM [inhibitor, full curve].
`COc1cccc(-n2c(C)nc3c(cnn3-c3ccc(Cl)cc3)c2=O)c1` was tested, and the Potency was inconclusive: 31.6 µM [inhibitor, single point].
For `CC(C)(C)C(=O)/C(=C/c1ccc(Cl)cc1)n1cncn1`, the Potency was “inactive”.
In the case of `S=c1[nH]nc(Cc2noc3ccccc23)n1-c1ccccc1`, the Potency was inconclusive: 5.62 µM [inhibitor, partial curve, poor fit].
For `Cn1c(O)c(/C=C2\N=c3ccccc3=C2CCNC(=S)NC2CC2)c(=O)n(C)c1=O`, the Potency was inconclusive: 25.1 µM [inhibitor, partial curve].
`Brc1ccc(Oc2ncc(CN3CCN(c4ccccc4)CC3)s2)cc1` was tested, and the Potency was “inactive”.
With `CC(C)c1ccc(C2CC(=O)N3CN(C)CSC3=C2C#N)cc1` (stereo not drawn) the Potency was inconclusive: 10 µM [inhibitor, partial curve, poor fit].
For `COc1ccc(S(=O)(=O)N2CCOCC2)cc1NC(=O)C1CCCN1C(=O)c1cccs1` (stereo not drawn), the Potency was inconclusive: 50.1 µM [inhibitor, single point].
With `CC1(C)NC(=O)N(CCCCOc2ccc3c(c2)CCC3)C1=O` the Potency was inconclusive: 35.5 µM [inhibitor, single point].
For `CC(=O)CC(=O)Nc1cccc2c1CCCC2`, the Potency was “inactive”.
`Cc1cccc(NC(=S)N/N=C/C(C)c2ccccc2)c1C` (stereo not drawn) was tested, and the Potency was inconclusive: 4.47 µM [inhibitor, partial curve].
With `NCCNCCN` the Potency was inconclusive: 14.1 µM [inhibitor, partial curve, poor fit].
`CC[n+]1c(/C=C/C=C/c2ccc(N(C)C)cc2)sc2ccccc21` was tested, and the Potency was inconclusive: 28.2 µM [inhibitor, partial curve, poor fit].
`CN(C)c1ccc(/C=N/NC(=O)c2ccccc2O)o1` was tested, and the Potency was inconclusive: 50.1 µM [inhibitor, single point].
With `CC(C)Oc1ccc(CCc2n[nH]c(=S)n2Cc2ccccc2)cc1` the Potency was inconclusive: 50.1 µM [inhibitor, single point].
`COc1ccc(/C=C(\NC(=O)c2ccccc2)C(=O)OC[C@@H]2CCC[N+]3(C)CCCCC23)cc1OC` (stereo partly drawn) was tested, and the Potency was inconclusive: 35.5 µM [inhibitor, single point].
For `CN1C(=S)SC(C)(NO)C1(C)C` (stereo not drawn), the Potency was inconclusive: 44.7 µM [inhibitor, single point].
In the case of `O=C1/C(=C/Nc2ccc3c(c2)OCO3)CCc2ccccc21`, the Potency was inconclusive: 35.5 µM [inhibitor, partial curve, poor fit].
`Cn1c(-c2sc3ccccc3c2Cl)n[nH]c1=S` was tested, and the Potency was inconclusive: 25.1 µM [inhibitor, partial curve, poor fit].
In the case of `COc1ccc(OC)c(/C=C/C(=O)c2ccc3c(c2)OCCO3)c1`, the Potency was “inactive”.
For `N#CC(C#N)=c1ccc2c(c1)NC1(CCCCC1)N=2`, the Potency was inconclusive: 28.2 µM [inhibitor, single point].
For `Cc1cnc(C)c(Nc2nc(C(N)Cc3ccc(C(F)(F)F)cc3)cs2)n1` (stereo not drawn), the Potency was “inactive”.
With `O=C(CCN1CCc2ccccc2CC1)c1ccc2c(c1)OCCO2` the Potency was inconclusive: 31.6 µM [inhibitor, partial curve, poor fit].
In the case of `Oc1ccc(N2CCN(c3ccnc4cc(Cl)ccc34)CC2)cc1`, the Potency was inconclusive: 35.5 µM [inhibitor, partial curve, poor fit].
In the case of `CC1(C(=O)NS(=O)(=O)c2ccc(Br)cc2)CCN1C(=O)CCC1CCCC1` (stereo not drawn), the Potency was “inactive”.
`O=C(Nc1ccc(SC(F)F)cc1)c1ccc(F)cc1` was tested, and the Potency was “inactive”.
With `CCC1(OC(=O)CN(C)C)C(=O)OCc2c1cc1n(c2=O)Cc2cc3c(N)cccc3nc2-1` (stereo not drawn) the Potency was “inactive”.
For `CC(C)n1c(=S)[nH]c2c1c(=O)[nH]c(=O)n2C`, the Potency was inconclusive: 3.55 µM [inhibitor, full curve, poor fit].
For `CC1(C)OC(=O)C(=Cc2ccc(-c3ccc(S(N)(=O)=O)cc3)o2)C(=O)O1`, the Potency was active: 22.4 µM.
With `N#CCCN(Cc1cccnc1)C(=S)NC(=O)c1ccc(S(=O)(=O)N2CCCC2)cc1` the Potency was inconclusive: 15.8 µM [inhibitor, partial curve, poor fit].
`COc1ccc(Cl)cc1Nc1ncnc2c1nc1n2CCCC1` was tested, and the Potency was “inactive”.
For `c1ccc(OCCSc2nnnn2-c2ccccc2)cc1`, the Potency was “inactive”.
`Cc1cc(-c2ccc(N=Nc3c(S(=O)(=O)O)cc4cc(S(=O)(=O)O)cc(N)c4c3O)c(C)c2)ccc1N=Nc1c(S(=O)(=O)O)cc2cc(S(=O)(=O)O)cc(N)c2c1O` was tested, and the Potency was inconclusive: 31.6 µM [inhibitor, partial curve, poor fit].
In the case of `Cn1ncc(Br)c1C(=O)NC(=S)N1CCN(c2ccccn2)CC1`, the Potency was inconclusive: 39.8 µM [inhibitor, partial curve, poor fit].
With `NCCOc1ccccc1-c1ccccc1` the Potency was “inactive”.
With `O=C(c1ccc(S(=O)(=O)N2CCC(c3nc4ccccc4[nH]3)CC2)cc1)N1CCOCC1` the Potency was inconclusive: 5.01 µM [inhibitor, partial curve, poor fit].
With `S=c1[nH]nc(-c2ccccc2)n1/N=C/C=C/c1ccco1` the Potency was inconclusive: 1.78 µM [inhibitor, full curve, poor fit].
In the case of `COc1cc(/C=C/[N+](=O)[O-])ccc1OCc1cccc(C(=O)O)c1`, the Potency was inconclusive: 17.8 µM [inhibitor, partial curve].
With `CCCc1c(O)nc(SCc2ccccc2)[nH]c1=O` the Potency was inconclusive: 35.5 µM [inhibitor, single point].
